Results taken from PubChem BioAssay AID485341 (National Center for Advancing Translational Sciences (NCATS), 2010).
Out of some 330,000 compounds screened, about 1,700 (0.52%) were called active. The shares of active, inactive and inconclusive entries below differ from those in the screen. Calls follow the shape of the dose curve; as a rule, active = well fitted inhibition curve with a large enough effect; inconclusive = small, poorly fitted or top-dose-only effect; inactive = no such curve, though single readings can be large or run the other way. Potencies beside an inconclusive call are fits to weak or partial responses and may not hold up.

molecular target: Beta-lactamase (Escherichia coli (strain K12)) (UniProt P00811); experiment: qHTS Inhibitors of AmpC Beta-Lactamase (assay without detergent); settings: AmpC nitrocefin hydrolysis, absorbance 480 nm, 0.0001% Triton; series mostly up to 57.1 µM; also: nearly all actives have a fitted effect of over 20% in size
Chain of UniProt P00811 (P00811 whole entry, looked up): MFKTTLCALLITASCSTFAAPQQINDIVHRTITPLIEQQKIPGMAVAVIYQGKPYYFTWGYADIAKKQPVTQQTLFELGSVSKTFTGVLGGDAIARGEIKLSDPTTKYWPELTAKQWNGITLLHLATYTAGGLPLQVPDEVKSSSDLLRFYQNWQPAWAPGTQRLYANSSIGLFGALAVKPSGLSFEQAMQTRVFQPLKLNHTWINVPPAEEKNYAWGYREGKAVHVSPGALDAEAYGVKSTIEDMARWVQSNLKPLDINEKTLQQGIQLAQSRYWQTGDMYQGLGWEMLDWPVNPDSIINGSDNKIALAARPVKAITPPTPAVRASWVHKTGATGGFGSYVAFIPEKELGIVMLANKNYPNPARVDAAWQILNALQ
In short: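 20 mM phosphate pH 7.0 + 0.01% (detergent screen) or 0.0001% Triton X-100; 5.3 nM AmpC reagent; cpd preinc 15 min RT; nitrocefin (800 uM stock) to start; A480 q20 s × 4 min; Activity was normalised to no-enzyme and no-compound control wells.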
Potency is read from the fitted curve at half-maximal effect; tags tell the direction and shape of the fitted curve.

**Q.** For `COc1ccc(O[C@H]2C=C[C@@H](c3ccccc3)O[C@@H]2CO/N=C(\C)CCN2CCc3nc(-c4ccccc4)c(-c4ccccc4)cc3C2)cc1`, which Potency is on record?
**A.** inactive

**Q.** `CC(=O)c1cccc(NC(=O)CSc2ccc(-c3sc(C)nc3C)nn2)c1` was tested. Which Potency did it give?
**A.** inactive

**Q.** Which Potency does the source give for `Cc1ccc2c(c1)/C(=C/c1ccc(F)cc1)C(=O)N2` here?
**A.** inactive

**Q.** With `Cn1nnnc1SCC(=O)NC1CCCCC1` as the molecule, how does the Potency read?
**A.** inconclusive: 3.98 µM [inhibitor, single point]

**Q.** `O=C(Nc1cc(S(=O)(=O)Nc2ccccc2Cl)ccc1O)c1cc2c(s1)CCCC2` was tested. Which Potency did it give?
**A.** inconclusive: 11.2 µM [inhibitor, partial curve, poor fit]

**Q.** `CCc1cc2ccccc2nc1SCC(=O)Nc1cc(OC)c(OC)cc1C(=O)O` was tested. Which Potency did it give?
**A.** active: 8.91 µM

**Q.** With `O=C(Nc1cc(Br)ccc1O)c1cnn2c(C(F)F)cc(C3CC3)nc12` as the molecule, how does the Potency read?
**A.** inconclusive: 12.6 µM [inhibitor, partial curve, poor fit]

**Q.** With `O=C(CSc1nccc(-c2ccc(Br)cc2)n1)NCCc1ccccc1` as the molecule, how does the Potency read?
**A.** inconclusive: 4.47 µM [inhibitor, single point]

**Q.** `CCOC(=O)c1ccc(NC(=O)CSCc2ccco2)cc1` was tested. Which Potency did it give?
**A.** inactive

**Q.** With `OC1(C(F)(F)F)CC(O)(C(F)(F)F)n2nc(-c3ccccc3)cc2N1` (stereo unspecified) as the molecule, how does the Potency read?
**A.** inconclusive: 6.31 µM [inhibitor, single point]

**Q.** With `Cc1nc(NC(=O)/C=C/c2ccccc2)sc1C(=O)Nc1cccc(Cl)c1` as the molecule, how does the Potency read?
**A.** inconclusive: 4.47 µM [inhibitor, full curve, poor fit]

**Q.** With `CNC(=S)N/N=C/c1cn(CCOc2cccc(OC)c2)c2ccccc12` as the molecule, how does the Potency read?
**A.** inconclusive: 8.91 µM [inhibitor, partial curve]

**Q.** With `COc1cccc(C2=NC(C)(C)NC(c3ccccc3O)C2)c1` (stereo unspecified) as the molecule, how does the Potency read?
**A.** inconclusive: 28.2 µM [inhibitor, single point]

**Q.** How did the Potency turn out when `CN[C@@H]1C[C@@H](c2ccc(Cl)c(Cl)c2)c2ccccc21` was run?
**A.** inactive

**Q.** For `CC(C)NS(=O)(=O)c1ccc(CCC(=O)O)cc1`, which Potency is on record?
**A.** inconclusive: 0.316 µM [inhibitor, full curve, poor fit]

**Q.** `COC(=O)/C(=C\C(=O)c1ccc([N+](=O)[O-])cc1)Nc1ccc(OC)cc1` was tested. Which Potency did it give?
**A.** inconclusive: 28.2 µM [inhibitor, partial curve]

**Q.** How did the Potency turn out when `C=CCOC(=O)C1=C(C)NC(C)=C(C(=O)OCC=C)C1c1cn(-c2ccccc2)nc1-c1ccco1` was run?
**A.** active: 15.8 µM

**Q.** How did the Potency turn out when `CC1C(=O)N2CCCc3cc(NC(=O)COc4ccc(Cl)cc4)cc1c32` (stereo unspecified) was run?
**A.** inconclusive: 35.5 µM [inhibitor, single point]

**Q.** For `COc1ccc(Cl)cc1C(=O)NNC(=O)c1csc(N2CCOCC2)n1`, which Potency is on record?
**A.** inactive

**Q.** `CN(C)c1cc[n+](CC(=O)Nc2c(Cl)cc(Cl)cc2Cl)cc1` was tested. Which Potency did it give?
**A.** inactive

**Q.** Which Potency does the source give for `O=C(CSc1nnc(-c2ccccc2)c(-c2ccccc2)n1)N1CCc2ccccc21` here?
**A.** inconclusive: 8.91 µM [inhibitor, single point]

**Q.** Which Potency does the source give for `O=C(N/N=C/C1CC=CCC1)c1cc2ccccc2cc1O` (stereo unspecified) here?
**A.** inconclusive: 1.78 µM [inhibitor, full curve, poor fit]

**Q.** For `COc1cccc(CC(=O)OC(C)C(=O)Nc2ccc(N3CCOCC3)cc2)c1` (stereo unspecified), which Potency is on record?
**A.** inconclusive: 39.8 µM [inhibitor, single point]

**Q.** Which Potency does the source give for `CC1Oc2cc3c(-c4c(O)cc(O)c5c(O)c6c(cc45)OC(C)C(C)C6=O)c(O)cc(O)c3c(O)c2C(=O)C1C` (stereo unspecified) here?
**A.** active: 22.4 µM

**Q.** With `O=C(CSc1nnnn1-c1ccc(O)cc1)c1cc2ccccc2o1` as the molecule, how does the Potency read?
**A.** inconclusive: 8.91 µM [inhibitor, partial curve]

**Q.** `N#CC1=C(N)Oc2c(c(=O)oc3ccccc23)C1c1ccc(OC(=O)N2CCOCC2)cc1` (stereo unspecified) was tested. Which Potency did it give?
**A.** inactive

**Q.** How did the Potency turn out when `Cc1cccc(C)c1NC(=O)COC(=O)c1c2c(nc3ccccc13)/C(=C\c1ccc3c(c1)OCO3)CCC2` was run?
**A.** active: 28.2 µM

**Q.** `Cc1[nH]c2ccccc2c1/C=N/n1cnnc1` was tested. Which Potency did it give?
**A.** inactive

**Q.** How did the Potency turn out when `O=c1c2[nH]c3ccc(F)cc3c2ncn1CCN1CCN(Cc2ccccc2)CC1` was run?
**A.** active: 0.316 µM

**Q.** Which Potency does the source give for `COc1ccc(CN2C(=O)NC(=O)/C(=C/c3ccc([N+](=O)[O-])s3)C2=O)cc1` here?
**A.** inconclusive: 39.8 µM [inhibitor, single point]

**Q.** Which Potency does the source give for `c1ccc(-c2nnc(-c3ccccc3)o2)cc1` here?
**A.** inactive

**Q.** `COC(=O)C(C)Oc1ccc(-c2nccc(-c3ccc(F)cc3)n2)cc1` (stereo unspecified) was tested. Which Potency did it give?
**A.** inactive

**Q.** With `Cc1ccc(S(=O)(=O)N(C)C)cc1NC(=O)c1cncc(Br)c1` as the molecule, how does the Potency read?
**A.** inactive

**Q.** For `O=C(Nc1ccccc1)OCCOc1ccc(Br)cc1`, which Potency is on record?
**A.** inconclusive: 4.47 µM [inhibitor, single point]

**Q.** For `CCCCC(=O)Nc1cc(NC(=O)CCCC)cc(C(=O)O)c1`, which Potency is on record?
**A.** inconclusive: 0.141 µM [inhibitor, full curve, poor fit]

**Q.** For `O=C(NN1c2ccccc2CCc2ccccc21)c1ccccc1Br`, which Potency is on record?
**A.** inconclusive: 35.5 µM [inhibitor, single point]

**Q.** How did the Potency turn out when `Cc1cc(/C=C2\SC(=S)NC2=O)c(C)n1-c1ccc(O)cc1` was run?
**A.** active: 11.2 µM

**Q.** Which Potency does the source give for `N#CCC(=O)Nc1ccc(C(=O)Nc2cccc(S(N)(=O)=O)c2)cc1` here?
**A.** inconclusive: 15.8 µM [inhibitor, partial curve]

**Q.** `COc1ccc(-n2nnc3c(=O)n(CC(=O)N4CCC(C)CC4)cnc32)cc1` was tested. Which Potency did it give?
**A.** inconclusive: 0.501 µM [inhibitor, full curve, poor fit]

**Q.** `CC(C)CNC(=S)NNC(=O)c1csc2ccccc12` was tested. Which Potency did it give?
**A.** inconclusive: 25.1 µM [inhibitor, single point]

**Q.** How did the Potency turn out when `COc1cc([N+](=O)[O-])ccc1NC(=S)NNC(=O)CCC(=O)Nc1ccccc1Cl` was run?
**A.** inactive

**Q.** Which Potency does the source give for `COc1cc(Cl)c(C)cc1NC(=O)COC(=O)C1=COCCO1` here?
**A.** inconclusive: 39.8 µM [inhibitor, single point]

**Q.** For `CCN(CC(=O)NC1CCS(=O)(=O)C1)S(=O)(=O)c1c(C)c(C)cc(C)c1C` (stereo unspecified), which Potency is on record?
**A.** inconclusive: 39.8 µM [inhibitor, single point]

**Q.** How did the Potency turn out when `O=C(Nc1ccc(Cl)cn1)c1ccccc1[N+](=O)[O-]` was run?
**A.** inactive

**Q.** `COc1ccc(N2CC(NS(=O)(=O)c3ccc4ccccc4c3)CC2=O)cc1` (stereo unspecified) was tested. Which Potency did it give?
**A.** inconclusive: 35.5 µM [inhibitor, single point]

**Q.** Which Potency does the source give for `Cc1ccccc1N(C)S(=O)(=O)c1nnc(NC(=O)c2ccco2)s1` here?
**A.** inconclusive: 28.2 µM [inhibitor, partial curve]

**Q.** `Cc1ccc(C)c(S(=O)(=O)c2c(N)n(/N=C/c3ccco3)c3nc4ccccc4nc23)c1` was tested. Which Potency did it give?
**A.** inconclusive: 8.91 µM [inhibitor, partial curve]

**Q.** Which Potency does the source give for `O=S(=O)(c1ccc(Cl)cc1)N1CCCC1c1nc(-c2cccc(Cl)c2)no1` (stereo unspecified) here?
**A.** inconclusive: 6.31 µM [inhibitor, single point]

**Q.** Which Potency does the source give for `CCN(CC)c1ccc2cc(S(=O)(=O)c3ccc(Cl)cc3)c(=O)oc2c1` here?
**A.** inconclusive: 7.08 µM [inhibitor, partial curve]

**Q.** Which Potency does the source give for `CCOc1ccc(C2c3c(oc4ccccc4c3=O)C(=O)N2CCCN2CCOCC2)cc1` (stereo unspecified) here?
**A.** inactive

**Q.** For `Oc1ccc(N=C/C=C/c2ccc(Br)cc2)cc1-c1nc2ccccc2s1`, which Potency is on record?
**A.** inactive

**Q.** For `Cc1ccc(-c2cc(C(=O)N3CCOCC3)c3ccccc3n2)cc1`, which Potency is on record?
**A.** inconclusive: 0.794 µM [inhibitor, partial curve, poor fit]

**Q.** For `Cc1cc(C)cc(NC(=O)Nc2ccccc2N2CCCCC2)c1`, which Potency is on record?
**A.** inconclusive: 1.58 µM [inhibitor, full curve, poor fit]

**Q.** Which Potency does the source give for `COc1ccccc1OCc1ccc(C(=O)Nc2ccccc2)cc1` here?
**A.** inactive

**Q.** How did the Potency turn out when `CSc1nncc(/C(C)=N\Nc2ccccc2)n1` was run?
**A.** inactive

**Q.** Which Potency does the source give for `CCCn1c(=O)c2ccccc2n2c(SCc3nnc(-c4ccccc4Br)o3)nnc12` here?
**A.** inactive

**Q.** For `O=C1CC(c2c(F)cccc2Cl)C2=C(COC2=O)N1` (stereo unspecified), which Potency is on record?
**A.** inconclusive: 0.141 µM [inhibitor, full curve, poor fit]

**Q.** With `O=C(Cc1cc(=O)[nH][nH]1)N/N=C/c1ccccc1Cl` as the molecule, how does the Potency read?
**A.** inconclusive: 17.8 µM [inhibitor, partial curve]

**Q.** How did the Potency turn out when `O=C(C1=C[C@H](c2csc3ccccc23)C[C@H](OCc2ccc(CO)cc2)O1)N1CCN(Cc2ccccc2)CC1` was run?
**A.** inactive

**Q.** How did the Potency turn out when `Cc1ccc(NC(=S)Nc2cccc3cnccc23)cc1` was run?
**A.** inactive

**Q.** For `CCN(CC(=O)NCc1cccs1)C(=O)c1ccc(-c2ccccc2F)o1`, which Potency is on record?
**A.** inactive

**Q.** How did the Potency turn out when `CCCN(CCC)c1nc(C)cc(C(C#N)c2nc3ccccc3o2)n1` (stereo unspecified) was run?
**A.** inconclusive: 6.31 µM [inhibitor, single point]

**Q.** With `CC1(C)S[C@@H]2[C@H](NC(=O)[C@H](N)c3ccccc3)C(=O)N2[C@H]1C(=O)O` as the molecule, how does the Potency read?
**A.** inconclusive: 0.562 µM [inhibitor, full curve]

**Q.** `Cc1ccc2nc(-c3ccc(NC(=O)COC(=O)c4ccc([N+](=O)[O-])o4)cc3)sc2c1` was tested. Which Potency did it give?
**A.** inconclusive: 35.5 µM [inhibitor, single point]

**Q.** `CS(=O)(=O)c1nc2ccccc2n1Cc1ccccc1` was tested. Which Potency did it give?
**A.** inactive

**Q.** Which Potency does the source give for `CCN1C(=O)c2ccccc2S(=O)c2ccc(C(=O)N3CCCC3)cc21` (stereo unspecified) here?
**A.** inconclusive: 44.7 µM [inhibitor, partial curve, poor fit]

**Q.** How did the Potency turn out when `COc1cc(/C=C/C(=O)OCC(=O)Nc2ccc([N+](=O)[O-])cc2)ccc1O` was run?
**A.** inconclusive: 17.8 µM [inhibitor, partial curve]

**Q.** How did the Potency turn out when `COc1cc(-c2cc(C(=O)Nc3cccc(C(C)=O)c3)c3ccccc3n2)cc(OC)c1OC` was run?
**A.** inactive

**Q.** Which Potency does the source give for `O=C(CSc1ccc(Br)c2cccc(Cl)c12)Nc1ccc(S(=O)(=O)Nc2nccs2)cc1` here?
**A.** active: 2.51 µM

**Q.** For `N#Cc1nc(-c2ccc(F)cc2)oc1NCCN1CCOCC1`, which Potency is on record?
**A.** active: 0.631 µM

**Q.** `Cc1nn(-c2ccccc2)c(C)c1NC(=O)COC(=O)c1ccc(Cl)c(N)c1` was tested. Which Potency did it give?
**A.** inconclusive: 39.8 µM [inhibitor, single point]
